Source: the RNAGym collection of RNA variant scans (doi:10.1101/gad.245936.114)
Variants at the background level are over-represented here.

B1: tRNA (parent)
chain: CUCUCGGUAGCCAAGUUGGUUUAAGGCGCAAGACUUUAAUUUAUCACUACGAAAUCUUGAGAUCGGGCGUUCGACUCGCCCCCGGGAGAUUUUUUCCUCGAGCAA

Variants of: B1
Test: nonsense suppression (GFP-seq) (ratio to wild type); higher = more function; SUP4oc tRNA, yeast GFP reporter sort-seq
In short: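 Sorted GFP/RFP bins of yeast were each Illumina-sequenced with a phred ≥30 cutoff; the cells held a genome-integrated ochre-suppressor tRNA variant from a library with ~3% random mutations, a galactose-driven GFP ochre reporter, and RFP. Culture was in raffinose/galactose medium containing 80 mg/L adenine. Nonsense suppression, termed GFPSEQ, is the median GFP/RFP of the bins weighted by each variant's estimated cell share per bin, relative to the unmutated parent tRNA, for variants reaching ≥100 reads and ≥30 cells.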

Variant | nonsense suppression
C1G A23U | ≤ 0.026
C1G A24C C34U | ≤ 0.026
C1G A24U U55G | ≤ 0.026
C1G A30C G32C | ≤ 0.026
C1G A30G | ≤ 0.026
C1G A30G G61A | ≤ 0.026
C1G A30U A60G | ≤ 0.026
C1G A30U G78U | ≤ 0.026
C1G A31C G78C | ≤ 0.026
C1G A33C | ≤ 0.026
C1G A54C | 0.0309
C1G A54G U63G U70G | ≤ 0.026
C1G A60U U63G | ≤ 0.026
C1G A74C | ≤ 0.026
C1G A74C C82A | ≤ 0.026
C1G A87G | ≤ 0.026
C1G C3A A31C | ≤ 0.026
C1G C3U G67C A74G | ≤ 0.026
C1G C3U U35A | ≤ 0.026
C1G C5G C11U A14C U22G | ≤ 0.026
C1G C5G U70G A74C | ≤ 0.026
C1G C5U G10U | ≤ 0.026
C1G C11A | ≤ 0.026
C1G C11G U57G G67A G88A | ≤ 0.026

Variant | nonsense suppression
C1G C11U | ≤ 0.026
C1G C11U U17A | ≤ 0.026
C1G C12G | ≤ 0.026
C1G C12G U22A A30C U70G | ≤ 0.026
C1G C12G U22A A31G A60U G67A C77A | ≤ 0.026
C1G C12U A30G G67C C83A | ≤ 0.026
C1G C12U U76C G86A | ≤ 0.026
C1G C27A A30U G85A | ≤ 0.026
C1G C27G | ≤ 0.026
C1G C27U U70G A74C | ≤ 0.026
C1G C29A C34U | ≤ 0.026
C1G C34G G84U | ≤ 0.026
C1G C56A C72G | ≤ 0.026
C1G C56G | ≤ 0.026
C1G C77U | ≤ 0.026
C1G C82G | ≤ 0.026
C1G C83A G86C | ≤ 0.026
C1G G6A A62U G84C | ≤ 0.026
C1G G6U A9U A60C | ≤ 0.026
C1G G7A G66C A74C | ≤ 0.026
C1G G7U A60C | ≤ 0.026
C1G G10C A31U A33U U55C C81G | ≤ 0.026
C1G G10C U22C | ≤ 0.026
C1G G10U G66U G73U | ≤ 0.026

Variant | nonsense suppression
C1G G15C U35G U71A G85U | ≤ 0.026
C1G G15U G61U | ≤ 0.026
C1G G15U U21G G69U | ≤ 0.026
C1G G18A | ≤ 0.026
C1G G18U | ≤ 0.026
C1G G18U U63G C79G | ≤ 0.026
C1G G19A G26C | ≤ 0.026
C1G G19U A60C U71A | ≤ 0.026
C1G G25A U35C | ≤ 0.026
C1G G25C A30U C68A G73C C77A | ≤ 0.026
C1G G26A G32U G66A | ≤ 0.026
C1G G26C | ≤ 0.026
C1G G26C U70A | ≤ 0.026
C1G G28A C83A | ≤ 0.026
C1G G59C | ≤ 0.026
C1G G59U U71A | ≤ 0.026
C1G G61A C75A | ≤ 0.026
C1G G61A U76C | 0.0371
C1G G65A G88A | ≤ 0.026
C1G G66A | ≤ 0.026
C1G G66C U71A | ≤ 0.026
C1G G66U | ≤ 0.026
C1G G67C | ≤ 0.026
C1G G69U | ≤ 0.026

Variant | nonsense suppression
C1G G69U A87C | ≤ 0.026
C1G G73A | 0.0631
C1G G86A | ≤ 0.026
C1G U2A C27U | ≤ 0.026
C1G U2A G18U | ≤ 0.026
C1G U2C G18U | ≤ 0.026
C1G U4A C12A | ≤ 0.026
C1G U4A G25U G67A A74C | ≤ 0.026
C1G U4C A54C G69A | ≤ 0.026
C1G U4C G73C A74U | ≤ 0.026
C1G U4G A9U C11G G19A U57G | ≤ 0.026
C1G U4G C11G C64A | ≤ 0.026
C1G U4G C29U | ≤ 0.026
C1G U8A G65C G73A | ≤ 0.026
C1G U8A G84C | ≤ 0.026
C1G U8C C56A | ≤ 0.026
C1G U16A | 0.777
C1G U16C A23C C29G G61U C72G | ≤ 0.026
C1G U16C A89U | ≤ 0.026
C1G U16C G26U | ≤ 0.026
C1G U16G G66U | ≤ 0.026
C1G U16G G69C G84A | ≤ 0.026
C1G U17A | ≤ 0.026
C1G U17C G19A G88A | ≤ 0.026

Variant | nonsense suppression
C1G U17G | ≤ 0.026
C1G U17G A54G | ≤ 0.026
C1G U20C | 0.0266
C1G U20C A31U | ≤ 0.026
C1G U21A C34U | ≤ 0.026
C1G U21A U70A C83G | ≤ 0.026
C1G U21C A31U C56A G61U C64U C72U G73A | ≤ 0.026
C1G U21G U22C | ≤ 0.026
C1G U22C | ≤ 0.026
C1G U22C C27U G67C | ≤ 0.026
C1G U22G | ≤ 0.026
C1G U22G A23U A33C U63A | ≤ 0.026
C1G U22G A30U G59A G86U | ≤ 0.026
C1G U35A | ≤ 0.026
C1G U55A C64A C81A | ≤ 0.026
C1G U57A | ≤ 0.026
C1G U57A C83A | ≤ 0.026
C1G U57G C72A C77G | ≤ 0.026
C1G U58A | ≤ 0.026
C1G U58G | ≤ 0.026
C1G U63A U70G G85C | ≤ 0.026
C1G U76G | ≤ 0.026
C1U | ≤ 0.026
C1U A9C G25C C34U | ≤ 0.026

Variant | nonsense suppression
C1U A9C U17C C29U C80G A89U | ≤ 0.026
C1U A9G C27G A33C G73A | ≤ 0.026
C1U A9G C72A C75U | ≤ 0.026
C1U A9U C80A | ≤ 0.026
C1U A9U U20A G28U | ≤ 0.026
C1U A13C A74G G85A A89U | ≤ 0.026
C1U A13C C68G | ≤ 0.026
C1U A13G A14G U57C A87C | ≤ 0.026
C1U A13G A62G | ≤ 0.026
C1U A13U A74U U76C | ≤ 0.026
C1U A14G A31G U58G | ≤ 0.026
C1U A14G G15U U20G G25U | ≤ 0.026
C1U A14U | ≤ 0.026
C1U A23C G59C U71C G86A | ≤ 0.026
C1U A23G C29U C64G | ≤ 0.026
C1U A23G G66A C82U | ≤ 0.026
C1U A23U A33G U76C | ≤ 0.026
C1U A24C A89C | ≤ 0.026
C1U A24C G25U U63A | ≤ 0.026
C1U A24G U76G | ≤ 0.026
C1U A24U | ≤ 0.026
C1U A24U G84A | ≤ 0.026
C1U A30C U71G | ≤ 0.026
C1U A31C A33U A54G | ≤ 0.026

Variant | nonsense suppression
C1U A31G U57G | ≤ 0.026
C1U A31U A54U | ≤ 0.026
C1U A31U U55G C56A U76A | ≤ 0.026
C1U A33G U55A | ≤ 0.026
C1U A33G U57C | ≤ 0.026
C1U A33U C34A | ≤ 0.026
C1U A54G G84U | ≤ 0.026
C1U A62G C80A | ≤ 0.026
C1U A62U G69A C77G | ≤ 0.026
C1U A74C | ≤ 0.026
C1U C3A A13C G65A | ≤ 0.026
C1U C3A C29A | ≤ 0.026
C1U C3A U8A U17C | ≤ 0.026
C1U C3G G86A | ≤ 0.026
C1U C3G U55C G84A | ≤ 0.026
C1U C3U | ≤ 0.026
C1U C3U C5A U17A | ≤ 0.026
C1U C3U G10U G59U | ≤ 0.026
C1U C5A | ≤ 0.026
C1U C5G G6C U70A C75G | ≤ 0.026
C1U C5G G19C C68G G84A | ≤ 0.026
C1U C5U C11U U16G C34G U63G G66C | ≤ 0.026
C1U C5U C34A | ≤ 0.026
